57 compounds from paper PMC4336329 (PLoS ONE, 2015) can be followed below.

The whole screen tested about 310,000 compounds, of which about 2,200 (0.71%) showed an effect of 50% or more. Effects have a minus sign here. The list shows a part of the results.

Chain of human ether-à-go-go-related gene (hERG) potassium channel (Q12809 whole entry, looked up): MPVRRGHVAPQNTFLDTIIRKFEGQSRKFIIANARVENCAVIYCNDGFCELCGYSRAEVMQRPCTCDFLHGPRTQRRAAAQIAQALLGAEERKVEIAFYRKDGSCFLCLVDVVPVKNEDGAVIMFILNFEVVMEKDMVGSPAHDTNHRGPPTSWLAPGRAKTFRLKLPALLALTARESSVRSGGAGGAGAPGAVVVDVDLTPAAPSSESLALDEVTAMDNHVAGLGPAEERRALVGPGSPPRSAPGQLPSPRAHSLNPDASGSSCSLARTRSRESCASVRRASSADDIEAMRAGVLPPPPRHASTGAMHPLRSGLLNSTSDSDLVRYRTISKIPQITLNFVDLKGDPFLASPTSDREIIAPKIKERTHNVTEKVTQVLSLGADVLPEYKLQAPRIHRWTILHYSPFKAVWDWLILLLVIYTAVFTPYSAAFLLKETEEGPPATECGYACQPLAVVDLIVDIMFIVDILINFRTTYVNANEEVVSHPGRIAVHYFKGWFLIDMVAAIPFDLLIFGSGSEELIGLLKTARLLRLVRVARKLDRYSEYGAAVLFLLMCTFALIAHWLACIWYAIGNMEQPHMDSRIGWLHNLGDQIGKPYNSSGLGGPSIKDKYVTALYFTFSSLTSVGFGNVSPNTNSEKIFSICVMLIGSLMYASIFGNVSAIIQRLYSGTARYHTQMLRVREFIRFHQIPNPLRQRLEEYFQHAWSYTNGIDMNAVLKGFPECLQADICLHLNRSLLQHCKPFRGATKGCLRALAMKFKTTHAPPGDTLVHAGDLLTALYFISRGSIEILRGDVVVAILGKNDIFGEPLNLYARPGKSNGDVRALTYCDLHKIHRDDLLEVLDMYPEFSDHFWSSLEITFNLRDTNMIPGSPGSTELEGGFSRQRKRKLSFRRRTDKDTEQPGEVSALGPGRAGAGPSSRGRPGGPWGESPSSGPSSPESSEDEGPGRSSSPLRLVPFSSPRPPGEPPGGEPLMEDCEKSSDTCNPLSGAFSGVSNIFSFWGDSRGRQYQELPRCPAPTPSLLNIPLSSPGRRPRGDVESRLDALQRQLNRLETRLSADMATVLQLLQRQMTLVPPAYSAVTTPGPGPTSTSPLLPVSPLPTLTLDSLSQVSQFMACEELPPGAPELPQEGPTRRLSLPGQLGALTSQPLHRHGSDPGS

The assay has as its target human ether-à-go-go-related gene (hERG) potassium channel (human, UniProt Q12809). The experiment in a line: primary screen, population patch clamp on CHO cells stably expressing hERG.
On to `Cc1cc(C)cc(NC(N)=S)c1`, for which the “hERG current change (%, negative = inhibition) at 1uM” value worked out at 0.401%.

On to `COc1ccc(C2CC(c3c(-c4ccccc4)c4cc(Cl)ccc4[nH]c3=O)=NN2S(C)(=O)=O)cc1` (stereo not drawn), for which the “hERG current change (%, negative = inhibition) at 1uM” value is on record as 10.3%.

As for `Cc1ccc(OCC(=O)NC2CCSc3ccccc32)cc1` (stereo not drawn), the “hERG current change (%, negative = inhibition) at 1uM” value worked out at 10.5%.

For `S=c1nc[nH]c2c1sc1nc(N3CCOCC3)c3c(c12)CCCC3`, the “hERG current change (%, negative = inhibition) at 1uM” value is 7.57%.

Turning to `NS(=O)(=O)c1cccc(NC(=O)CNC(=O)CC23CC4CC(CC(C4)C2)C3)c1`, the “hERG current change (%, negative = inhibition) at 1uM” value is reported as 9.32%.

For `CCOc1ccc2nc(NC(=O)c3cnccn3)sc2c1`, the “hERG current change (%, negative = inhibition) at 1uM” value was -2.59%.

In the case of `CC1CCC2C(=O)N(c3ccc(Cc4ccncc4)cc3)C(=O)C2C1` (stereo not drawn), the “hERG current change (%, negative = inhibition) at 1uM” value was 7.58%.

Turning to `Cc1cc(C)cc(NC(=S)/C(=C(\[O-])c2ccc(Cl)cc2Cl)[n+]2ccccc2)c1`, the “hERG current change (%, negative = inhibition) at 1uM” value was determined as 9.82%.

Consider `CC(C)(C)c1cc(NS(=O)(=O)c2cccs2)no1`, for which the “hERG current change (%, negative = inhibition) at 1uM” value turned out to be 18.4%.

With `O=C(O)c1ccc2c(c1)C(=O)N(CCCCCCCN1C(=O)c3ccc(C(=O)O)cc3C1=O)C2=O`, the “hERG current change (%, negative = inhibition) at 1uM” value came out at 16.5%.

With `CC1(C)Cc2ccccc2C2=NNC(=O)C2=N1`, the “hERG current change (%, negative = inhibition) at 1uM” value came to 4.15%.

Take `COc1ccccc1OCC(=O)/C=C1/N(C)c2ccccc2C1(C)C`: the “hERG current change (%, negative = inhibition) at 1uM” value was 2.4%.

Regarding `Cn1c(C(=O)N(Cc2ccccc2)Cc2cccs2)cc2sccc21`, the “hERG current change (%, negative = inhibition) at 1uM” value was 19.7%.

With `C=CCN1C(=O)c2ccc(C(=O)NCCOc3ccccc3F)cc2C1=O`, the “hERG current change (%, negative = inhibition) at 1uM” value is given as -5.52%.

`C=CCNCCCCOc1ccccc1-c1ccccc1.O=C(O)C(=O)O`: the “hERG current change (%, negative = inhibition) at 1uM” value amounted to 0.375%.

On to `O=C(Oc1ccccc1C(=S)N1CCCCC1)c1cc([N+](=O)[O-])cc([N+](=O)[O-])c1`, for which the “hERG current change (%, negative = inhibition) at 1uM” value was found to be 1.09%.

Consider `COc1ccc(OC)c(NC(=O)c2sc3ncnc(N4CCN(c5ccccn5)CC4)c3c2C)c1`, for which the “hERG current change (%, negative = inhibition) at 1uM” value turned out to be 3.06%.

On to `O=CN1Cc2[nH]c3ccccc3c2N(c2ccc(Cl)cc2)C1=O`, for which the “hERG current change (%, negative = inhibition) at 1uM” value was determined as 3.72%.

On to `Cc1nn(-c2ncc(C(F)(F)F)cc2Cl)c(=O)n1-c1ccccc1`, for which the “hERG current change (%, negative = inhibition) at 1uM” value amounted to 19.5%.

With `COc1ccc(C(=O)NCCCNC(=O)c2ccco2)cc1OC`, the “hERG current change (%, negative = inhibition) at 1uM” value came to 12.2%.

`Cc1ccccc1CSc1nc(C(C)(C)C)cc(=O)[nH]1`: the “hERG current change (%, negative = inhibition) at 1uM” value is recorded as 10.3%.

For the compound `C/C(=N\NC(=O)CC1N=C(Cc2ccccc2)NNC1=O)c1ccc(C)cc1` (stereo not drawn), the “hERG current change (%, negative = inhibition) at 1uM” value stood at 2.24%.

In the case of `Cc1nnc(SCc2cccc3ccccc23)s1`, the “hERG current change (%, negative = inhibition) at 1uM” value amounted to 0.214%.

Regarding `O=C(CSc1ccc2nnc(CCNC(=O)c3ccccc3)n2n1)NCCc1ccccc1`, the “hERG current change (%, negative = inhibition) at 1uM” value worked out at 9.32%.

Consider `Cl.NCCCC[C@@H](C(=O)N1CCNCC1)n1cc([C@@H](N)CO)nn1`, for which the “hERG current change (%, negative = inhibition) at 1uM” value was determined as 12.1%.

On to `CC1=NNC(=O)C1CCC(=O)N/N=C(\C)c1ccccc1` (stereo not drawn), for which the “hERG current change (%, negative = inhibition) at 1uM” value turned out to be 19.4%.

As to `CCn1c(SCC(=O)NCC2CCCO2)nc2cc(S(=O)(=O)N3CCCCC3)ccc21` (stereo not drawn), the “hERG current change (%, negative = inhibition) at 1uM” value was -3.14%.

As for `COc1ccc(OC)c(-n2nnnc2SCC(=O)Nc2nc(C)c(C)s2)c1`, the “hERG current change (%, negative = inhibition) at 1uM” value is recorded as -0.808%.

As to `O=C(O)[C@H](Cc1ccccc1)NC(=O)N1CCN(c2cccc(C(F)(F)F)c2)CC1`, the “hERG current change (%, negative = inhibition) at 1uM” value stood at 17.6%.

With `COc1ccc(OC)c(NC(=O)C(CC(=O)O)NCc2ccco2)c1` (stereo not drawn), the “hERG current change (%, negative = inhibition) at 1uM” value is 19.6%.

Take `COc1ccc2c(CC(=O)OCC(=O)Nc3sc4c(c3C#N)CCC(C)C4)coc2c1` (stereo not drawn): the “hERG current change (%, negative = inhibition) at 1uM” value was determined as 2.99%.

Turning to `Cc1ccc2c(c1)CC1(CN2C)C(=O)NC(=O)N(c2ccc(C)c(C)c2)C1=O` (stereo not drawn), the “hERG current change (%, negative = inhibition) at 1uM” value is given as -5.95%.

Regarding `CCC1CCCCN1CCCNS(=O)(=O)c1ccc2c(c1)oc(=O)n2C` (stereo not drawn), the “hERG current change (%, negative = inhibition) at 1uM” value is on record as 4.98%.

For the compound `CC(NCC(O)COc1ccc(Br)cc1)c1ccccc1.Cl` (stereo not drawn), the “hERG current change (%, negative = inhibition) at 1uM” value is 3.95%.

Take `Cc1oc2cc(OC(=O)c3ccco3)ccc2c(=O)c1-c1nc2ccccc2n1C`: the “hERG current change (%, negative = inhibition) at 1uM” value was determined as 3.42%.

On to `CC(C)OC(=O)Cn1nnc(-c2ccccc2)n1`, for which the “hERG current change (%, negative = inhibition) at 1uM” value came out at 8.29%.

Consider `COc1ccc(NC(=O)c2cc([N+](=O)[O-])ccc2N2CCCC2)cc1`, for which the “hERG current change (%, negative = inhibition) at 1uM” value was determined as 13.9%.

Regarding `COc1ccc(NC(=S)NC(NC(=O)c2ccc(Cl)cc2Cl)C(Cl)(Cl)Cl)c([N+](=O)[O-])c1` (stereo not drawn), the “hERG current change (%, negative = inhibition) at 1uM” value came out at 18%.

Take `CC(C)(C)C(=O)Nc1ccc(-c2csnn2)cc1`: the “hERG current change (%, negative = inhibition) at 1uM” value is 7.72%.

Regarding `O=C(O)CNc1ccc(S(=O)(=O)C(F)(F)F)cc1[N+](=O)[O-]`, the “hERG current change (%, negative = inhibition) at 1uM” value turned out to be 3.17%.

In the case of `Cc1ccc(C(=O)N2C3C=CC(C3)C2(C(F)(F)F)C(F)(F)F)cc1` (stereo not drawn), the “hERG current change (%, negative = inhibition) at 1uM” value is given as -0.174%.

For the compound `CC(=O)NC(CSc1cc(C)nc2ccc(Br)cc12)C(=O)O` (stereo not drawn), the “hERG current change (%, negative = inhibition) at 1uM” value is on record as 15%.

`CCOC(=O)C1CCCN(CC(O)COCc2ccc3c(c2)OCO3)C1` (stereo not drawn): the “hERG current change (%, negative = inhibition) at 1uM” value is 1.42%.

In the case of `CN1c2ccccc2C(=O)/C(=C\Nc2ncccn2)S1(=O)=O`, the “hERG current change (%, negative = inhibition) at 1uM” value was 13.7%.

For the compound `COC(=O)CCCC(=O)N1CCCC(N(C)CCc2ccccc2)C1` (stereo not drawn), the “hERG current change (%, negative = inhibition) at 1uM” value is recorded as -4.11%.

For `O=C(O)c1ccc2nnn(O)c2c1`, the “hERG current change (%, negative = inhibition) at 1uM” value is given as -1.73%.

On to `O=C(CCC(=O)N1CCN(c2ccc(C(F)(F)F)cn2)CC1)c1cccs1`, for which the “hERG current change (%, negative = inhibition) at 1uM” value was determined as 7.94%.

Turning to `Cc1occc1-c1nnc(SCC(=O)Nc2ccccc2)n1CCc1ccccc1`, the “hERG current change (%, negative = inhibition) at 1uM” value is given as -20.1%.

Turning to `CCOCC(=O)N1CCC(Cc2ccccc2)CC1`, the “hERG current change (%, negative = inhibition) at 1uM” value is given as -39.6%.

Regarding `CCOc1ccc(N2C(=O)CC(N(CCc3ccc(S(N)(=O)=O)cc3)C(C)=O)C2=O)cc1` (stereo not drawn), the “hERG current change (%, negative = inhibition) at 1uM” value stood at 12.5%.

Take `COC(=O)c1sc(NC(=O)/C=C/c2ccccc2Cl)nc1C`: the “hERG current change (%, negative = inhibition) at 1uM” value turned out to be 9.5%.

Take `O=C(O)CCc1ccc(-c2ccccc2)o1`: the “hERG current change (%, negative = inhibition) at 1uM” value was -0.494%.

Turning to `COc1ccc(C2CC(c3ccccc3)=NN2c2ccc(S(N)(=O)=O)cc2)cc1OC` (stereo not drawn), the “hERG current change (%, negative = inhibition) at 1uM” value amounted to 7.52%.

With `CC(C)[C@H](NC(=O)c1ccccc1Cl)C(=O)NC1CCCCCC1`, the “hERG current change (%, negative = inhibition) at 1uM” value was determined as 9.93%.

Take `O=C(O)c1cc2c(s1)CCCC2`: the “hERG current change (%, negative = inhibition) at 1uM” value worked out at 16.6%.

`C=C(C)CN(CC)C(=O)CN1C(=O)NC2(CCc3ccccc32)C1=O` (stereo not drawn): the “hERG current change (%, negative = inhibition) at 1uM” value worked out at 15.3%.

As for `CCC1Sc2ccc(S(=O)(=O)N3CCN(c4ccccc4)CC3)cc2NC1=O` (stereo not drawn), the “hERG current change (%, negative = inhibition) at 1uM” value amounted to 13.9%.
